Hit rate of the full screen: of about 310,000 compounds, about 2,200 (0.71%) showed an effect of 50% or more. Effects have a minus sign here. The list shows a part of the results.
What follows are compounds tested against human ether-à-go-go-related gene (hERG) potassium channel (human, UniProt Q12809) (assay: primary screen, population patch clamp on CHO cells stably expressing hERG).
Sequence of human ether-à-go-go-related gene (hERG) potassium channel (Q12809 whole entry, looked up): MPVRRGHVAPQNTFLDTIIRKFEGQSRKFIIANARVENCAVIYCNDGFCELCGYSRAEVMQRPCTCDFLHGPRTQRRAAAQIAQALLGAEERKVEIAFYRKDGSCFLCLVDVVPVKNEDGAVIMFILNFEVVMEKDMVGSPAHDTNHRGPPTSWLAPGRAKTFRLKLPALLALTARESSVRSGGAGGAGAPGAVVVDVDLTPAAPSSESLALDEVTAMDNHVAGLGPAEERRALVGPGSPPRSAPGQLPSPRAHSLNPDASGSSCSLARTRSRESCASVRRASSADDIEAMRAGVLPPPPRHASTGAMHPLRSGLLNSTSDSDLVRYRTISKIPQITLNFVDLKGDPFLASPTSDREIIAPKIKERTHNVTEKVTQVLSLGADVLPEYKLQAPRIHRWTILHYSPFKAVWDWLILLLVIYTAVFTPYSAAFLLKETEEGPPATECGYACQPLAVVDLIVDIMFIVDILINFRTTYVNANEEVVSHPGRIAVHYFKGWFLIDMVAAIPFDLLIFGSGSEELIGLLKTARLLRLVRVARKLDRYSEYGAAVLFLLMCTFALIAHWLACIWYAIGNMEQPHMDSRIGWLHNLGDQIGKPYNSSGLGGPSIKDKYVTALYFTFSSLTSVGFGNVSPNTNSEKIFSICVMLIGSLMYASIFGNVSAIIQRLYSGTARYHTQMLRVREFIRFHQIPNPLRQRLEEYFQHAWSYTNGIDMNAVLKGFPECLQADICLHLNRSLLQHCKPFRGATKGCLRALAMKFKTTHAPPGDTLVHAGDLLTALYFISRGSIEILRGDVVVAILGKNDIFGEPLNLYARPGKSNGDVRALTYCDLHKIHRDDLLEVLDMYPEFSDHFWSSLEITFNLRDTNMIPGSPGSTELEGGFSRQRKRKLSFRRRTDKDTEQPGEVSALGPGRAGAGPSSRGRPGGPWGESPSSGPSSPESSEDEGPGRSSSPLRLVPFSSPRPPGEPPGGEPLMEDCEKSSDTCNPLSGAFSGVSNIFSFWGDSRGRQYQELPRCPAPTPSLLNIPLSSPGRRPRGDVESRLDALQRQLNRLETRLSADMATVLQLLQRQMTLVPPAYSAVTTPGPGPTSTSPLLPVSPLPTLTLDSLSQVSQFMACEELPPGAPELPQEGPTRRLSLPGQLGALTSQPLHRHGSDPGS

Point of comparison: CC(=O)c1c(C)[nH]c(C2=NNC(=NCc3ccccc3)SC2)c1C, “hERG current change (%, negative = inhibition) at 1uM” value 18.2%. Against it:
- COC(=O)c1ccc(COc2cccc(C)c2C)cc1 — lower, -9.02%
- Cn1c(N)c(C(=O)c2ccc(Cl)cc2)c(=O)n(C)c1=O — lower, 9.49%
- Cc1ccc(C(=O)O/N=C(\N)c2ccccn2)cc1Cl — lower, 17.9%
- CCC(=O)OC1c2ccccc2C(=O)N1Cc1ccccc1 (stereo not shown) — lower, -6.18%
- COc1ccc(C(=O)N/N=C/c2ccc(N3CCOCC3)s2)cc1OC — lower, 13.6%
- CCSC1=NCCN1S(=O)(=O)c1ccc(NC(C)=O)cc1 — lower, -1.02%
- CC(=O)c1ccc(OCC(=O)Nc2ccccc2C(=O)NC2CC2)cc1 — higher, 18.3%
- COC(=O)C1=C(C)N(Cc2cccnc2)C(=O)/C1=C\c1cccs1 — lower, -43.3%
- COC(=O)c1ccc(NC(=O)COc2ccc(C3C(C#N)=C(N)Oc4c3ccc3ccccc43)cc2OC)cc1 (stereo not shown) — lower, 6.75%
- COc1cc(/C=C(\C#N)C(=O)Nc2ccc(SC(F)F)cc2)cc(OC)c1OC — lower, 14.9%
- Cc1nnc(SCC(=O)Nc2ncc3c(n2)CC(c2ccccc2)CC3=O)s1 (stereo not shown) — lower, 11.7%
- O=C(/C=C/c1cccc([N+](=O)[O-])c1)NCc1cccnc1 — lower, 2.85%
- CCCc1nc2c(sc3nc4c(cc32)COC(C)(C)C4)c(=O)n1Cc1ccco1 — lower, -6.18%
- O=C1CC(c2ccccc2)=NN1c1nc(-c2ccccc2)cs1 — lower, 14.2%
- Cc1ccc(NC(=O)CN2CCC(C(=O)c3ccc4c(c3)OCCO4)CC2)cc1 — lower, 7.38%
- Cc1nnc(SCC(=O)c2ccccc2)n1Cc1ccccc1 — lower, 12.3%
- Cc1ccc(-n2cc(CN(C)CCc3cn[nH]c3)c(-c3cccc(C)c3)n2)cc1 — lower, -15.4%
- CC(=O)c1sc(NC(=O)CS(=O)(=O)c2ccc(F)cc2)nc1C — lower, -11.4%
- COc1ccccc1C(CNC(=O)c1ccc(C)c(S(=O)(=O)N2CCCCC2)c1)N(C)C (stereo not shown) — lower, 3.32%
- CCN1CCN(Cc2ccc(NC(=O)c3ccc(C)c(NC(=O)C(=O)c4c[nH]c5ccccc45)c3)cc2C(F)(F)F)CC1.O=C(O)C(F)(F)F — lower, 11.1%
- Cl.OCc1cc(CO)c(O)c(CCc2ccccc2)n1 — lower, 8.52%
- CCc1ccc(CN(C)C(=O)CCc2nnc(CCc3cccc(OC)c3)o2)nc1 — lower, -4.58%
- COc1ccc(-c2nn(-c3ccccc3)cc2/C=C(\C#N)S(=O)(=O)c2ccccc2)cc1OC — the same, 18.2%
- CSc1cccc(NC(=O)CNC(=O)C2CCCCC2)c1 — lower, 11.1%
- COc1ccc(NC(=O)/C=C/c2ccc(Br)o2)cn1 — lower, 15.7%
- COc1ccc(-n2c(C)nc3ccccc3c2=O)c([N+](=O)[O-])c1 — lower, -1.42%
- C=CCn1c(O)c(C(C)=NCCO)c(=O)[nH]c1=O — lower, 11.6%
- O=C(Nc1nc(-c2ccc(F)cc2)cs1)C1CCN(C(=O)c2ccc(F)cc2)CC1 — lower, -12.9%
- CCc1nn(C(C)C(=O)NCCN2CCN(c3cccc(C)c3C)CC2)c(=O)c2cc3occc3n12 (stereo not shown) — lower, -12.2%
- O=C(Nc1cccc(O)c1)c1cccc(S(=O)(=O)Nc2cccc(O)c2)c1 — lower, 16%
- C=CCn1c(COc2ccccc2F)nnc1SCC(=O)N1CC(=O)Nc2ccccc21 — lower, -17.7%
- CCC(C)N(C(=O)CSc1nc2ccc(OC)cc2[nH]1)C1CCS(=O)(=O)C1 (stereo not shown) — lower, 16.6%
- COc1cc(NC(=O)c2ccc(F)cc2)c(OC)cc1NC(=O)CN1CCOCC1 — lower, 3.57%
- C/C(N)=C(/C#N)C(=O)CSc1cc(C)c2ccccc2n1 — lower, 9.74%
- CN(CCO)c1cc(N2CCCCC2)c2nonc2c1[N+](=O)[O-] — lower, 15%
- COc1ccc(C(=O)C2CCCN(Cc3cccn3-c3nccs3)C2)cc1F (stereo not shown) — lower, -91.4%
- Nc1nonc1C(=O)N/N=C/c1cc2c(cc1Br)OCO2 — lower, -2.52%
- O=C(Nc1ccccc1N1CCN(C(=O)c2ccc(Cl)cc2)CC1)c1cccnc1 — lower, -77%
- CC(C)(O)C1=NOC(c2ccccc2)C1 (stereo not shown) — lower, 10.9%
- CCCCn1c(SCC(=O)N2CCOCC2)nc2ccccc2c1=O — lower, -39.4%
- COCCSc1nnc(NC(=O)c2ccc([N+](=O)[O-])cc2)s1 — lower, 12.7%
- C=CCN1C(=O)NC(c2ccccc2)(C(F)(F)F)S/C1=C(\C#N)c1nnc(N2CCOCC2)n1-c1ccccc1 (stereo not shown) — lower, 13.9%
- CN(CC(=O)N1CCN(c2cccc(Cl)c2)CC1)S(=O)(=O)c1cccs1 — lower, 0.526%
- Cc1cccc2c1N1C(=O)c3c(C(=O)O)cccc3C1CC2C (stereo not shown) — lower, 2.23%
- Cc1cc(OC(C)C(=O)Nc2cccnc2)ccc1Cl (stereo not shown) — lower, 9.07%
- O=C(NC1CCCC1)c1ccccc1-c1ccccc1 — lower, 9.04%
- CCCC(C)C1(CC)C(=O)NC(=Nc2ccccc2)NC1=O (stereo not shown) — lower, 9.31%
- COc1ccccc1NC(=O)CN(C)S(=O)(=O)c1cc(C)ccc1OC — lower, 3.45%
- Cl.OCCNCc1cccc(OCc2ccc(Cl)cc2)c1 — lower, 7.79%
- COc1ccc(/C(C)=N/NC(=O)CNC(=O)COc2ccccc2)c(OC)c1 — lower, 14.6%
- COc1ccc(/C=N/NC2=NS(=O)(=O)c3ccccc32)cc1 — lower, 11.9%
- CCCN(C(=O)Cc1c(C(=O)O)n(C)c2ccccc12)c1cccc(C)c1 — lower, 16%
- Cc1ccc(S(=O)(=O)N(C)C)cc1NC(=S)N1CCCCC1CO (stereo not shown) — lower, 6.21%
- COc1ccc(OC)c(CN2CCN(C(=O)CNC(=O)c3cc(C)cc(C)c3)CC2)c1 — lower, -10%
